Experimental data published in PubChem BioAssay AID1508624 (National Center for Advancing Translational Sciences (NCATS), 2021).
Out of some 48,000 compounds screened, about 120 (0.25%) were called active. Roughly 4% stayed inconclusive and do not appear here. The call rests on the fitted dose curve; in most records, active means well fitted activation curve with a large enough effect; inconclusive means small, poorly fitted or top-dose-only effect, or another doubt; inactive means no such curve, though single readings can be large or run the other way. Some of the results follow.

Assay: Primary qHTS for Identification of Small Molecule Activators of Huntingtin-Antisense Promoter Activity; further: nearly all actives have a fitted effect of over 55% in size
Settings: HEK293 HTT-AS promoter firefly luciferase reporter, 24 h; series mostly up to 57.5 µM; activity change, positive = activation: at the top concentration
Summary of the method: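 Quantitative HTS used concentration series of up to 57.5 uM final on HEK293 luciferase reporter cells, 24 h at 37 degrees C. Readout was Dual-Glo firefly luminescence.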

Activity change, positive = activation, inactive:
CC(=O)Nc1ccc(-n2c(CCC(=O)O)ccc2-c2ccc(C)cc2)cc1 -0.416%
CCOC(=O)c1oc2ccc(S(=O)(=O)n3nc(-c4cc(OC)cc(OC)c4)cc3N)cc2c1C -12.4%
Cc1ccc(NC(=O)CSc2nc3c(oc4ccccc43)c(=O)n2Cc2ccco2)cc1 -11%
CCCn1c(=O)c2sccc2n2c(CCCC(=O)N3CCN(c4cccc(C)c4C)CC3)nnc12 -19.2%
CN(C(=O)CSc1nc2ccccc2n1CC(=O)N(C)c1ccc(F)cc1)c1ccccc1 -4.84%
CCc1ccccc1NC(=O)Cn1nnc(C(=O)NCc2cccs2)c1N -18.1%
Cc1ccc(CNC(=O)CN2C(=O)C3(SCC(=O)N3c3cc(C)cc(C)c3)c3ccccc32)cc1 (stereo unspecified) -24.1%
O=C(CSc1nccn1Cc1ccc(F)cc1)Nc1ccc2c(c1)OCO2 -6.12%
COc1ccc(CNCCSc2nnnn2-c2ccccc2)c(OC)c1 -12.3%
CCN(c1ccccc1)S(=O)(=O)c1ccc(F)c(C(=O)Nc2ccc(C)cc2)c1 -29%
Cc1nc(-c2cccc(F)c2)sc1CCNC(=O)c1ccc(F)c(F)c1 -25.3%
CCOc1ccc(Nc2oc(-c3ccc(COc4ccccc4C)o3)nc2C#N)cc1 -18.5%
O=C(C1CC1)N1CCc2cc(Br)cc(S(=O)(=O)N3CCN(c4ccccc4)CC3)c21 -3.31%
CCc1ccc(NS(=O)(=O)c2ccc(C(=O)N(C)C)s2)cc1 -28.1%
OCc1cccnc1 1.46%
Cn1c(=O)c2sccc2n2c(CCC(=O)N3CCN(c4cccc(Cl)c4)CC3)nnc12 -11.8%
Cc1c(CNCCc2ccc(S(N)(=O)=O)cc2)c(C(=O)O)c(C)n1Cc1ccc(Cl)cc1 3.71%
CCCCC(=O)Nc1nnc(S(=O)(=O)N(CC)c2cc(C)cc(C)c2)s1 -14.7%
CCCCOC(=O)c1ccc(Nc2nc3ccccc3c3nnc(C)n23)cc1 -6.21%
CCOc1ccc(/C=C(\C#N)C(=O)Nc2sc3c(c2C(=O)OC)C(C(=O)OC)CC3)cc1OC (stereo unspecified) -20%
CCOC(=O)c1cc(OC(=O)c2ccc(Cl)cc2)n(-c2ccccc2)n1 -8.38%
Cc1ccc(N(CC(=O)N2CCN(c3ccc(Cl)cc3)CC2)S(=O)(=O)c2c(C)noc2C)cc1 -33.8%
COc1ccc(C2C(=O)N(C3CCCCC3)CC(=O)N2Cc2ccccc2Cl)cc1OC (stereo unspecified) -11%
COc1ccc(-c2nn(CC(=O)Nc3ccccc3F)c3c2cnc2ccc(F)cc23)cc1 28.6%
CCc1ccc(-n2nc(C)c3c(C(=O)NCCc4ccc(OC)c(OC)c4)cc(C)nc32)cc1 -31%
Cc1ccc(C)c(N2CCN(CCCNC(=O)Cn3ncc4c([nH]c5ccccc54)c3=O)CC2)c1 -12.5%
Cc1ccc(-c2nc(S(=O)(=O)c3ccc(C)cc3)c(N3CCN(c4ccccc4)CC3)o2)cc1 -9.19%
CCN(CC)CCNC(=O)c1cc(Cl)c(N)cc1OC -9.49%
COc1ccc(CNC(=O)Cn2ncn3nc(-c4cccs4)cc3c2=O)cc1 11.6%
COc1ccc(N2CCN(S(=O)(=O)CCNC(=O)c3ccc(C(F)(F)F)cc3)CC2)cc1 -1.83%
CCC1CCCCN1C(=O)c1nn(-c2ccc(C)cc2)c(=O)c2c1c1ccccc1n2C (stereo unspecified) 14.7%
COc1ccc(Cn2ccnc2SCC(=O)NCc2ccccc2)cc1 -8.46%
CCOc1ccc(CCNC(=O)c2cnc3sc(N4CCOCC4)nn3c2=O)cc1 -6.54%
COc1ccccc1-c1ccnc2[nH]n(-c3ccccc3)c(=O)c12 -5.3%
CCc1cccc(C)c1NC(=O)Cn1c(=O)cc(C(F)(F)F)c2c(C)nn(C)c21 -5.96%
Cc1cccc(N2CCN(c3nc4ccccc4c(=O)n3-c3ccc(Cl)cc3)CC2)c1C -14.8%
CCOc1ccc(C(=O)Nc2ccc(S(=O)(=O)N3CCCCC3c3cccnc3)cc2)cc1 (stereo unspecified) -46.3%
Cc1ccc(C)c(S(=O)(=O)NCC(c2ccco2)S(=O)(=O)c2ccc(F)cc2)c1 (stereo unspecified) -18.7%
Cc1ccc(N2CCN(C(=O)c3ccc4c(Cl)c5c(nc4c3)CCCC5)CC2)c(C)c1 -8.67%
Cc1noc(C)c1S(=O)(=O)N(CC(=O)NCc1ccccc1Cl)c1ccc(C(C)C)cc1 -39.9%
O=C(Nc1ccc(F)cc1F)c1c2c(nc3ccccc13)C(=O)N(C1CCCCC1)C2 -9.39%
O=C(NCc1cccs1)C1CCN(C(=O)N2CCOc3ccccc32)CC1 -22.9%
O=C(Nc1c(-c2ccccc2)nc2ccccn12)c1ccc(Br)cc1 -28.3%
O=C(CSc1nc2c([nH]c3ccccc32)c(=O)n1-c1ccccc1)c1ccccc1 -8.69%
CCCN1C(=O)c2ccccc2CC1(C)C(=O)NC1CCCCC1 (stereo unspecified) -7.16%
Cc1ccc(Cl)cc1Nc1nn2c(=O)c3ccc(C(=O)NCc4cccs4)cc3nc2s1 -42.4%
COc1ccccc1NC(=O)C1CCN(S(=O)(=O)c2ccc3c(c2)oc(=O)n3C)CC1 -22.2%
Cc1ccc(NC(=O)N2CCN(c3nnc(C)c4c(C)n(-c5ccccc5)nc34)CC2)cc1Cl 2.92%
CCOc1ccccc1CNC(=O)c1cnc2sc(N3CCCC3)nn2c1=O -21.1%
CN(C)C/C=C(/c1ccc(Br)cc1)c1cccnc1 -2.3%
CCOCCCn1c(SCC(=O)Nc2cccc(OC)c2)nc2ccccc2c1=O -15.1%
O=C(NCc1ccc2c(c1)OCO2)c1ccc2c(c1)N(Cc1ccc(F)cc1)C(=O)c1ccccc1S2=O (stereo unspecified) -24.4%
CCN(c1ccc(Cl)cc1)S(=O)(=O)c1nnc(NC(=O)C2CCCCC2)s1 -29.9%
Cc1ccc2nc(N(Cc3cccnc3)C(=O)c3ccc4c(c3)OCCO4)sc2c1 19.4%
CCOCCc1nn2c(=O)cc(COC(=O)c3cccs3)nc2s1 12.9%
CC(=O)NCCC(=O)N[C@@H](CCC(N)=O)C(=O)N[C@@H](CO)C(=O)N[C@@H](CCC(N)=O)C(=O)N[C@@H](CCC(N)=O)C(=O)N[C@H](C(=O)N[C@@H](Cc1ccccc1)C(=O)N[C@]1(C)CCCCCCC=CCCC[C@@](C)(C(=O)N[C@@H](CCC(N)=O)C(=O)N[C@@H](CC(N)=O)C(N)=O)NC(=O)[C@H](CC(C)C)NC(=O)[C@H](CC(C)C)NC(=O)[C@@H](CCCNC(=N)N)NC(=O)[C@H](Cc2c[nH]c3ccccc23)NC(=O)[C@H](CC(C)C)NC(=O)[C@H](CC(N)=O)NC1=O)[C@H](C)O -1.76%
CCCCCn1c(=O)[nH]c2cc(C(=O)NCc3ccc(OC)cc3)ccc2c1=O -12.6%
CCCC(=O)O[C@]1(C(=O)CCl)[C@@H](C)C[C@H]2[C@@H]3CCC4=CC(=O)C=C[C@]4(C)[C@@]3(F)C(=O)C[C@@]21C -25.1%
CCOC(=O)c1ccc(NC(=O)CCS(=O)(=O)c2ccc3c(c2)oc(=O)n3C)cc1 7.96% [at 11.5 µM, percent change from vehicle, -100% = no light]
CCCCN(CCCC)CCNC(=O)CN1C(=O)CSc2ccc(S(=O)(=O)N3CCCCC3)cc21 -5.31%
Cc1cccc(CN2C(=O)CC(c3ccc(Cl)cc3)c3c(C)nn(-c4nc(C)cc(C)n4)c32)c1 (stereo unspecified) -23.7%
COc1ccccc1N(CC(=O)Nc1ccccc1F)S(C)(=O)=O 13.7% [at 11.5 µM, percent change from vehicle, -100% = no light]
CCOc1ccc(-n2nc3cc(C)c(NC(=O)CC)cc3n2)cc1 26.5%
CCc1ccc(NC(=O)C(CC)n2nnc(C(=O)OC)c2C(=O)OC)cc1 (stereo unspecified) 19.3%
COc1ccc(C2NC(=O)c3c(sc4c3CCN(C)C4)N2)cc1O (stereo unspecified) -0.788%
CCCNc1nc(NCc2ccccc2OC)c2cnn(C)c2n1 -29.3%
CCN(CCCNC(=O)c1cc2c(=O)[nH]c3ccc(C)cc3c2s1)c1ccc(C)cc1 -13.4%
Cc1ccc(Cl)cc1N1CCN(S(=O)(=O)c2ccc3[nH]c4c(c3c2)CCCC4)CC1 -22.6%
CCOc1ccc2ccccc2c1C(=O)N[C@@H]1C(=O)N2[C@@H]1SC(C)(C)[C@@H]2C(=O)O 1.77%
Cc1cccc(N2CCN(C(=O)C3CCN(S(=O)(=O)c4cn(C)cn4)CC3)CC2)c1C -18.7%
COc1ccccc1NC(=O)CN1C(=O)c2cccc3cccc1c23 -0.0591% [at 11.5 µM, percent change from vehicle, -100% = no light]
O=C(Cn1ncc2c3ccccc3n(Cc3ccccc3)c2c1=O)Nc1ccccc1C(F)(F)F -9.08%
COc1ccc(OC)c(CNC(=O)CCCn2nc(C)c3c(C)n(-c4ccc(C)cc4)nc3c2=O)c1 -29%
CCn1ccc2cc(S(=O)(=O)N3CCCN(C(=O)Nc4cc(Cl)ccc4C)CC3)ccc21 -22.3%
CC(C)c1ccc(NS(=O)(=O)c2ccc3[nH]cc(C(=O)N4CCCC4)c(=O)c3c2)cc1 -8.51%
COc1cccc(CNC(=O)Cc2c(C)c3c(cc(C)c4c(C)coc43)oc2=O)c1 -4.47%
CCOc1ccc(NC(=O)Nc2ccc3snnc3c2)cc1 -4.4%
CCOc1ccc(-c2cc(NC(=O)c3ccc(C)cc3)c(C(=O)OC)s2)cc1 -2.68%
COc1ccc2c(c1)-c1nc(NC(=O)c3ccc(C)cc3)sc1CC2 3.27%
CCCC(=O)C1=C(c2ccc(C)c(C)c2)N(C(=O)CCC)n2c(CC)nnc2S1 -3.56%
Cn1cnc2c1c(=O)[nH]c(=O)n2C
COc1ccc(-c2noc(-c3ccc(NCCc4ccccc4)c([N+](=O)[O-])c3)n2)cc1OC -0.0927%
CCOc1ccc(NC(=O)C(=O)NCCc2csc3nc(-c4ccccc4F)nn23)cc1 0.882%
COC(=O)c1ccc(Cl)cc1NC(=O)N(C)CCc1c(C)nn(C)c1C -10.3%
CCOc1ccc(NC(=O)Cn2cc(C(=O)c3ccc(C)c(C)c3)c(=O)c3cc(OC)c(OC)cc32)cc1 -17.9%
COc1cc(NC(=O)C(CC(C)C)NS(=O)(=O)c2ccc3c(c2)oc(=O)n3C)c(C(=O)O)cc1OC (stereo unspecified) 6.21%
